{"source": "PubChem BioAssay (NCATS)", "note": "Values joined by “and” are separate entries in the source; they are usually repeats but may differ in a detail not shown here. Equal entries are not always repeated. The inconclusive results got no clear call from the source; some entries with a clear call stand among them for comparison. For some assays here: Potencies of inconclusive entries are doubtful fits and often do not repeat. Active and inactive are the calls of the source. Unless noted, calls follow the shape of the dose curve; as a rule, active = well fitted inhibition curve with a large enough effect; inconclusive = small, poorly fitted or top-dose-only effect; inactive = no such curve, though single readings can be large or run the other way. Tags tell the direction and shape of the fitted curve.", "data": [{"target": "Tumor necrosis factor (Homo sapiens) (UniProt P01375)", "sequence (P01375 whole entry, looked up)": "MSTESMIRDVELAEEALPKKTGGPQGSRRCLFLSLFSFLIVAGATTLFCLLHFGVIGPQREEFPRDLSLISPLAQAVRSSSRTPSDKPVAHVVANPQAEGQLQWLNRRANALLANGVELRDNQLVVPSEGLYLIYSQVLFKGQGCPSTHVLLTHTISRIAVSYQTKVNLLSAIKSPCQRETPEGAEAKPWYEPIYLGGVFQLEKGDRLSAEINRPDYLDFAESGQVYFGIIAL", "test": "qHTS assay to identify small molecules that stimulate Tumor Necrosis Factor-alpha (TNF-alpha) secretion (AID 651757; active = well fitted curve in the direction sought with a large enough effect in the signal ratio; inconclusive = small, poorly fitted or top-dose-only effect, or a change in a side signal; inactive = no such curve, though single readings can be large or run the other way; the % refers to the signal ratio; also: 0% is about no effect)", "settings": "Human cells, HTRF 665/615 ratio; at 92.2 µM (top of the series)", "method_in_brief": "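Using 3000 THP-1 cells per well, compounds and controls were applied for 17 hrs at 37 C. Detection followed with two labeled anti-TNF-alpha antibodies (cryptate donor, XL665 acceptor) for 3 hr at room temperature, measured by TR-FRET.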", "values": [{"compound": "COc1cc2c(c(OC)c1OC)-c1ccc(OC)c(=O)cc1[C@@H](NC(C)=O)CC2", "activation (TNF-alpha secretion)": "inconclusive: 4.53%"}, {"compound": "COc1ccc2[nH]cc(CCNC(C)=O)c2c1", "activation (TNF-alpha secretion)": "inconclusive: 0.136% and inconclusive: 1.68%"}, {"compound": "Cc1cn([C@H]2C[C@H](N=[N+]=[N-])[C@@H](CO)O2)c(=O)[nH]c1=O", "activation (TNF-alpha secretion)": "inactive: 0.425%"}, {"compound": "NS(=O)(=O)c1cc2c(cc1Cl)NC=NS2(=O)=O", "activation (TNF-alpha secretion)": "inconclusive: -0.749%"}, {"compound": "Nc1c2c(nc3ccccc13)CCCC2", "activation (TNF-alpha secretion)": "inconclusive: 0.0516%"}]}, {"tested_on": "not listed separately", "test": "qHTS assay to identify small molecules that stimulate interleukin-8 (IL-8) secretion (AID 651758; active = well fitted activation curve with a large enough effect in the signal ratio; inconclusive = small, poorly fitted or top-dose-only effect, or effect the other way, or a change in a side signal; the % refers to the signal ratio; also: potency is read from the fitted curve at half-maximal effect; as to activation: 0% is about no effect)", "settings": "HTRF ratio (665/615); activation: at 92.2 µM (top of the series)", "method_in_brief": "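Quantitative HTS in THP-1 monocytic cells at 2000 cells per well, with 16 hrs compound incubation at 37 C. IL-8 in the medium was then quantified by HTRF immunoassay, read after 1-3 hrs at room temperature.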", "values": [{"compound": "COc1ccc2[nH]cc(CCNC(C)=O)c2c1", "Potency": "inconclusive: 75 µM [activator, single point] and inactive"}, {"compound": "Cn1c(=O)c2c(ncn2C)n(C)c1=O", "activation": "inconclusive: -0.31%"}, {"compound": "CC1=NN(c2ccccc2)C(=O)C1", "activation": "inconclusive: 9.37%"}, {"compound": "COc1ccc(CCN(C)CCCC(C#N)(c2ccc(OC)c(OC)c2)C(C)C)cc1OC", "note": "(stereo unspecified)", "activation": "inconclusive: 27.1%"}, {"compound": "Cc1cn([C@H]2C[C@H](N=[N+]=[N-])[C@@H](CO)O2)c(=O)[nH]c1=O", "activation": "inconclusive: -15.5%"}, {"compound": "COc1ccc2c(c1)c(CC(=O)O)c(C)n2C(=O)c1ccc(Cl)cc1", "Potency": "inconclusive: 66.8 µM [rising, single point]"}, {"compound": "COc1c2occc2cc2ccc(=O)oc12", "activation": "inconclusive: -5.04%"}, {"compound": "Cc1ccc(-c2cc(C(F)(F)F)nn2-c2ccc(S(N)(=O)=O)cc2)cc1", "activation": "inconclusive: -23.8%"}, {"compound": "NS(=O)(=O)c1cc2c(cc1Cl)NC=NS2(=O)=O", "activation": "inactive: -1.73%"}, {"compound": "C[C@]12C=CC(=O)C=C1CC[C@@H]1[C@@H]2C(=O)C[C@@]2(C)[C@H]1CC[C@]2(O)C(=O)CO", "activation": "inconclusive: 2.43%"}, {"compound": "CC[C@H](C)C(=O)O[C@H]1C[C@@H](C)C=C2C=C[C@H](C)[C@H](CC[C@@H]3C[C@@H](O)CC(=O)O3)[C@H]21", "activation": "inconclusive: 1.08%"}, {"compound": "Nc1c2c(nc3ccccc13)CCCC2", "Potency": "inconclusive: 75 µM [inhibitor, single point]"}, {"compound": "Nc1ccc(S(N)(=O)=O)cc1", "activation": "inconclusive: -13.8%"}, {"compound": "NC(=O)c1cnccn1", "activation": "inconclusive: -16.5%"}]}, {"target": "Tyrosine-protein kinase Yes (Homo sapiens) (UniProt P07947)", "sequence (P07947 whole entry, looked up)": "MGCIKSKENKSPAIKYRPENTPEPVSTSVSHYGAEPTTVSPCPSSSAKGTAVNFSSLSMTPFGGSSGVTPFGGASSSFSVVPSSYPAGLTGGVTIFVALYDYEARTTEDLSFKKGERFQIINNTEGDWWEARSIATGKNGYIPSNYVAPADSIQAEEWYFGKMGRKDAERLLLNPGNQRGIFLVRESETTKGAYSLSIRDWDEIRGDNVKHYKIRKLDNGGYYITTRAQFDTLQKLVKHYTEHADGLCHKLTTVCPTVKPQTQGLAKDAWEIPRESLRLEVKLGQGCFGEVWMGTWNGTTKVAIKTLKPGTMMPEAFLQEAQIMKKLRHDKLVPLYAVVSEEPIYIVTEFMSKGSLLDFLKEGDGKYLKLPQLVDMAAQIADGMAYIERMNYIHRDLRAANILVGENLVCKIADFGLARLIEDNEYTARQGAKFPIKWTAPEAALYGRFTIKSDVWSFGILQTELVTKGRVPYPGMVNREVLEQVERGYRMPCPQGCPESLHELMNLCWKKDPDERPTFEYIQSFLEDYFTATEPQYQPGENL", "test": "qHTS for small molecule inhibitors of Yes1 kinase: Primary Screen (AID 686947); also: nearly all actives have a fitted effect of over 60% in size; also: potency is read from the fitted curve at half-maximal effect;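 as to activity change, negative = inhibition: plate controls were DMSO with enzyme for no effect and no-enzyme DMSO wells for full effect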", "settings": "Yes1 kinase biochemical qHTS inhibition; series mostly up to 76.9 µM; activity change, negative = inhibition: at the top concentration", "method_in_brief": "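In this qHTS format, inhibition is expressed relative to DMSO controls with enzyme (maximum) and without enzyme (minimum). The 60 min room-temperature reaction uses 0.1 mM ATP, with ADP detected by luminescence.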", "values": [{"compound": "CC(C)(Sc1ccc(CCN(CCCCC2CCCCC2)C(=O)NC2CCCCC2)cc1)C(=O)O", "Potency": "inconclusive: 61.3 µM [inhibitor, single point]"}, {"compound": "O=C(C=Cc1c(C(=O)O)[nH]c2cc(Cl)cc(Cl)c12)Nc1ccccc1", "activity change, negative = inhibition": "inactive: 5.68%"}, {"compound": "Cc1c(-c2ccc(O)cc2)n(Cc2ccc(OCCN3CCCCCC3)cc2)c2ccc(O)cc12", "activity change, negative = inhibition": "inactive: 5.36%"}, {"compound": "COc1cc(OC2CCN(C)CC2)ccc1Nc1ncc2c(n1)n(C1CCCC1)c(=O)n2C", "Potency": "inconclusive: 34.5 µM [inhibitor, single point]"}, {"compound": "COc1ccc(CCN2CCN(CCCc3ccccc3)CC2)cc1OC", "Potency": "inconclusive: 34.5 µM [inhibitor, single point]"}, {"compound": "CCCCCCCc1ccc(CCc2cccc(O)c2C(=O)O)cc1", "Potency": "inconclusive: 43.4 µM [inhibitor, single point]"}, {"compound": "CC(=O)Nc1cccc(-n2c(=O)n(C3CC3)c(=O)c3c(Nc4ccc(I)cc4F)n(C)c(=O)c(C)c32)c1", "activity change, negative = inhibition": "inactive: -13.9%"}, {"compound": "CN1CCN(c2cc(C(=O)Nc3ccc4c(c3)-c3c(c(C(N)=O)nn3-c3ccc(F)cc3)CC4)c(Cl)cn2)CC1", "activity change, negative = inhibition": "inactive: -9.45%"}, {"compound": "CCc1cncnc1N1CCN(Cc2nc3ccc(C(F)(F)F)cc3[nH]2)CC1", "activity change, negative = inhibition": "inactive: -21.1%"}, {"compound": "CCCCCN(CCC12CC3CC(CC(C3)C1)C2)C(=O)NCCCc1ccncc1", "activity change, negative = inhibition": "inactive: -1.21%"}, {"compound": "Cc1nnc(C(=O)NC(C)(C)c2nc(C(=O)NCc3ccc(F)cc3)c(O)c(=O)n2C)o1", "activity change, negative = inhibition": "inactive: -9.3%"}, {"compound": "Cc1cn([C@H]2C[C@H](N=[N+]=[N-])[C@@H](CO)O2)c(=O)[nH]c1=O", "Potency": "inconclusive: 43.4 µM [inhibitor, single point]"}, {"compound": "CCCCOCCOc1nc(-c2ccc(C(=O)O)c(F)c2)sc1C", "Potency": "inconclusive: 48.7 µM [inhibitor, single point]"}, {"compound": "Cn1cc(-c2ccc3nnc(Sc4ccc5ncccc5c4)n3n2)cn1", "activity change, negative = inhibition": "inactive: 23.2%"}, {"compound": "CC(C)(C)c1cc(NC(=O)Nc2ccc(-c3cn4c(n3)sc3cc(OCCN5CCOCC5)ccc34)cc2)no1", "activity change, negative = inhibition": "inactive: -21.8%"}, {"compound": "CNC(=O)c1ccc(N2C(=S)N(c3ccc(C#N)c(C(F)(F)F)c3)C(=O)C2(C)C)cc1F", "activity change, negative = inhibition": "inactive: -3.72%"}, {"compound": "O=C1[C@H](Cc2ccc(O)cc2)N2C(=O)CCN(C(=O)NCc3ccccc3)[C@H]2CN1Cc1cccc2ccccc12", "activity change, negative = inhibition": "inactive: 15.6%"}, {"compound": "CCN(CC)CCCCNc1nc2cc(Cl)c(Cl)cc2nc1-c1ccc(-c2cccs2)s1", "Potency": "inconclusive: 43.4 µM [inhibitor, single point]"}, {"compound": "Cn1cc(-c2[nH]c3cc(NC(=O)[C@H](N)C4CCCCC4)cc4c3c2C=NNC4=O)cn1", "Potency": "inconclusive: 0.0867 µM [inhibitor, full curve, poor fit]"}, {"compound": "CC(=O)NCCC(=O)N[C@@H](CCC(N)=O)C(=O)N[C@@H](CO)C(=O)N[C@@H](CCC(N)=O)C(=O)N[C@@H](CCC(N)=O)C(=O)N[C@H](C(=O)N[C@@H](Cc1ccccc1)C(=O)N[C@]1(C)CCCCCCC=CCCC[C@@](C)(C(=O)N[C@@H](CCC(N)=O)C(=O)N[C@@H](CC(N)=O)C(N)=O)NC(=O)[C@H](CC(C)C)NC(=O)[C@H](CC(C)C)NC(=O)[C@@H](CCCNC(=N)N)NC(=O)[C@H](Cc2c[nH]c3ccccc23)NC(=O)[C@H](CC(C)C)NC(=O)[C@H](CC(N)=O)NC1=O)[C@H](C)O", "Potency": "inconclusive: 34.5 µM [inhibitor, single point]"}, {"compound": "NC(=O)C1CCCc2c1[nH]c1ccc(Cl)cc21", "note": "(stereo unspecified)", "Potency": "inconclusive: 61.3 µM [inhibitor, single point]"}, {"compound": "CC(C)c1ccccc1Cc1cc(C(=O)Nc2ccc(S(=O)(=O)c3ccccc3C(C)(C)C)cc2)c(O)c(O)c1O", "Potency": "inconclusive: 6.88 µM [inhibitor, full curve, poor fit]"}]}]}
